A word on the GI50: it is the concentration giving 50% growth inhibition.

Structures are written as SMILES.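 Compound exposure: 48 hours, 5 concentrations, 96-well plates. Here, GI50 denotes the concentration required for 50% inhibition of growth.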 Activity calls are given as the source filed them. Rule as the data show it: active = GI50 up to about 1.1 µM and inactive = higher.

The subject of the assay is NCI-H322M. The assay is described as follows: DTP human tumour cell line panel, 48 h.
With `N#Cc1c(N)n(C2OC(CO)C(O)C2O)c2ncnc(N)c12` (configuration not stated), the GI50 was active: 0.0294 µM.

In the case of `OCc1cn(Cc2ccccc2)c2ccccc12`, the GI50 was inactive: 24.3 µM.

For the compound `CC1(C)C(=O)/C=C\C(=O)C(C)(C)C(=O)/C=C\C(=O)C(C)(C)C2=CC=C(O2)C(C)(C)C(=O)/C=C\C1=O`, the GI50 was inactive: 18.8 µM. With `COC(=O)CCCN(C)c1nc(N)n[nH]1`, the GI50 is inactive: > 100 µM. For `O=C(Nc1ccccc1)c1cc2c(cc1Cl)Sc1nccn1S2(=O)=O` the value was inactive: 20.2 µM; for `NC(=O)CC(N/C=C1/N=C(c2ccccc2)OC1=O)C(=O)O` (configuration not stated), inactive: > 100 µM; for `O=C(NNC(=O)c1ccccc1Cl)c1ccccc1O`, inactive: 81.5 µM.

For `CO[P@@]1(=O)O[C@@H](c2ccccc2)[C@H](O)[C@]1(O)c1ccccc1`, the GI50 is inactive: 25.8 µM. As to `CCCCNC(=O)Nc1c(C(N)=O)c2n(c1C(=O)OCC)CCCCC2`, the GI50 is inactive: > 100 µM. As for `COc1cc(-c2cc(=O)c3cc(C)c(C)c(C(=O)O)c3o2)cc(OC)c1OC`, the GI50 was inactive: > 100 µM. On to `COc1ccc([C@H]2CC(=O)N3CCCC3N2)cc1` (some centres not stated), for which the GI50 is inactive: > 100 µM. For `COc1cc(C2C(C(=O)O)=C(CO)Oc3cc4c(cc32)OCO4)cc(OC)c1OC` (configuration not stated) the value was inactive: > 100 µM. As for `COC(=O)c1sc(=S)sc1SCc1ccccc1CSc1sc(=S)sc1C(=O)OC`, the GI50 was inactive: > 100 µM. `Cn1c(CCC2(C)Cc3ccccc3C(=O)O2)cc2ccccc2c1=O` (configuration not stated): the GI50 is inactive: 28.8 µM. Next, `CC(=O)Nc1ccc2c3c(cc(O)c2c1)N(C(=O)CCCCCC(=O)N1CC(CCl)c2c1cc(O)c1cc(NC(C)=O)ccc21)CC3CCl` (configuration not stated): active: 0.179 µM.

For `CC(C)C(NCc1c2ccccc2[n+](C)c2ccccc12)C(=O)O` (configuration not stated), the GI50 was inactive: 13.1 µM. On to `CN(C)CCNC(=O)c1cccc2c1Oc1c(cccc1[N+](=O)[O-])O2`, for which the GI50 was inactive: 3.85 µM. For the compound `CCn1c2ccccc2n2c(=O)c3c(c(C#N)c12)CCCC3`, the GI50 was inactive: > 100 µM. For `O=C(c1cccs1)N(C(=S)OCc1ccccn1)c1ccccc1` the value was inactive: > 100 µM. For `COc1ccc(CC2(Cc3ccc(OC)cc3)CCOC2=O)cc1` the value was inactive: > 100 µM; for `Cc1ccc(S(=O)(=O)N2CCN(S(=O)(=O)c3ccc(C)cc3)Cc3ccccc3C2)cc1`, inactive: 49.5 µM; for `CC1=C(CC2C(=O)N(c3ccccc3)S(=O)(=O)NC2C)C(=O)N(c2ccccc2)S(=O)(=O)N1C` (configuration not stated), inactive: > 100 µM. For `CN1C(=O)C23CCCCC2CC1(c1ccccc1)S3` (configuration not stated) the value was inactive: > 100 µM; for `CCCCCCCCCC(O)CC(=O)c1c(O)cccc1O` (configuration not stated), inactive: 20.6 µM. For the compound `CCOC(=O)CCC(NC(=O)Cc1ccc(Oc2nc3ccccc3nc2-c2cccs2)cc1)C(=O)OCC` (configuration not stated), the GI50 is inactive: 19.3 µM.

For `Cn1nc(Cc2ccc(Cl)cc2)n(N)c1=O`, the GI50 is inactive: > 100 µM.

As for `Cc1ccc(C(=O)Nc2ccc(CP(=O)(O)O)cc2CP(=O)(O)O)cc1NC(=O)c1cccc(N)c1`, the GI50 is inactive: > 100 µM. Consider `N#Cc1nc(-c2cnccn2)oc1N`, for which the GI50 was inactive: > 100 µM. For `Cc1c[nH]c(C(=O)O)c1-c1cccn1-c1ccc(Cl)cc1[N+](=O)[O-]` the value was inactive: > 100 µM; for `CN(CCCNC(=O)c1cn(C)c2c1ccc1cc(Cl)ccc12)CCCNC(=O)c1cn(C)c2c1ccc1cc(Cl)ccc12`, inactive: 2.33 µM. With `CCc1cccc(C(C)CC)c1/N=C(/NC(=O)c1ccccc1C(=O)N/C(=N/c1c(CC)cccc1C(C)CC)SC)SC` (configuration not stated), the GI50 was inactive: 43.2 µM. In the case of `O=C(NCCS(=O)(=O)N1C(=O)C2CCCN2C(=O)[C@@H]1Cc1ccccc1)OCc1ccccc1` (some centres not stated), the GI50 was inactive: > 100 µM. Next, `Cc1ccc(S(=O)(=O)OCCC2CN(C(=O)OCc3ccccc3)C(C)(C)O2)cc1` (configuration not stated): inactive: > 100 µM. Next, `CC1(C)C(/C=N\O)=[N+]([O-])C(C)(C)N1O`: inactive: > 100 µM. Regarding `CN1CCN2CCN(C)CCN(CC1)CC2`, the GI50 was inactive: > 100 µM.

Regarding `c1ccc2c(Cc3[nH]c4ccccc4c3Cc3c[nH]c4ccccc34)c[nH]c2c1`, the GI50 was inactive: 3.65 µM.

Turning to `COCN1C(=O)[C@@H]2CCCN2C(=O)c2cc(OC)c(Cc3ccccc3)cc21`, the GI50 was inactive: > 100 µM. For the compound `CC1(C)COC(C23C4C5C2C2C3C4C52I)=N1` (configuration not stated), the GI50 was inactive: > 100 µM. Next, `CN(C)CC1CCC/C(=C\c2ccc(Cl)c(Cl)c2)C1=O` (configuration not stated): inactive: 15.5 µM. Consider `C/C(=N/c1[nH]c(=O)cc2c1C(=O)CC2)N(C)C`, for which the GI50 is inactive: > 200 µM. As to `O=c1c2ccccc2nc(-c2ccccc2)n1/N=C/c1ccccc1[N+](=O)[O-]`, the GI50 is inactive: > 100 µM. Next, `COC(=O)C12C3C4C5C3(C#N)C1C5(C(=O)OC)C42C(=O)N(C(C)C)C(C)C` (configuration not stated): inactive: > 100 µM; `CCOC(=O)C1=NNC(C(=O)c2ccccc2)C1c1ccccc1` (configuration not stated): inactive: 18 µM; `COC(=O)[C@@H]1C[C@H]([Se]c2ccccc2)CN1S(=O)(=O)c1ccc(C)cc1`: inactive: > 100 µM. For the compound `C=C1c2nc3ccccc3n2C=C(c2ccc(Cl)cc2)N1c1ccc(OCCN2CCOCC2)cc1`, the GI50 is inactive: 61.8 µM. As for `COc1ccc(CCNC2=CC(=O)c3ncccc3C2=O)cc1OC`, the GI50 was inactive: 1.3 µM. Next, `OC1c2ccccc2CC12Cc1ccccc1C2` (configuration not stated): inactive: > 100 µM; `CCOC(=O)c1c(N2CCOCC2)[nH]c(=O)c(C(c2ccc(Cl)c([N+](=O)[O-])c2)c2c(O)c(C(=O)OCC)c(N3CCOCC3)[nH]c2=O)c1O`: inactive: > 100 µM. As to `CNC(=S)N/N=C/c1cccc(C)n1`, the GI50 was inactive: 52.4 µM. For `O=[N+]([O-])c1ccc(C2CC(c3ccccc3Cl)=Nc3ccccc3S2)cc1` (configuration not stated) the value was inactive: 13.5 µM; for `C=CCOc1ccccc1/N=N/C(C#N)=N\Nc1ccccc1OCC=C`, inactive: > 100 µM; for `CC12N=NN(c3ccc([N+](=O)[O-])cc3)C1(O)c1ccccc1C2=O` (configuration not stated), inactive: > 100 µM. For `COc1cc(-c2c3c(cc4c2OCO4)[C@@H](Nc2ccc(-c4ccc(-c5ccc(N[C@@H]6c7cc8c(cc7C(c7cc(OC)c(O)c(OC)c7)[C@H]7C(=O)OC[C@H]67)OCO8)cc5)cc4)cc2)[C@H]2COC(=O)[C@@H]2C3)cc(OC)c1O` (some centres not stated) the value was inactive: 2.76 µM; for `COC(=O)C1=C(O)C(C(=O)OC)[C@@]2(O)[C@@H](C(=O)OC)C(c3ccc(OC(=O)/C(=C/c4ccccc4)c4ccccc4)cc3)C[C@@H]1[C@@H]2C(=O)OC` (some centres not stated), inactive: > 100 µM. Take `CCc1cccc2c3c([nH]c12)-c1ccccc1NC(=O)C3`: the GI50 was inactive: > 100 µM. Next, `Cn1c2ccccc2n2c(=O)c(-c3ccc(Cl)cc3)nnc12`: inactive: > 100 µM; `CN(C)CCNc1ccc2c(=O)n(CCN(C)C)c(=O)n3c4ccccc4c(=O)c1c23`: active: 0.0594 µM.
